In publication PMC5482489:
These are yes or no findings as the source states them, for the method shown. In cells and extracts the contact can be indirect. Some results given as binding are weak or reduced against the parent protein; the word gives no strength. Tags and fused reporters may be left off the sequences shown.

How the values were obtained:
[1] = biological target: T1, FLAG-tagged OATP1B3 (human), Q9NPD5; assay: co-IP; membrane fractions of co-transfected HEK293 cells, treated with or without 2 mM DTSSP, solubilised in 0.1% NP-40 in PBS; anti-His, anti-HA or anti-FLAG antibody on magnetic beads, 4°C, 2 days; Western blot after beta-mercaptoethanol; conditions: remark: other sources report otherwise
T1 chain: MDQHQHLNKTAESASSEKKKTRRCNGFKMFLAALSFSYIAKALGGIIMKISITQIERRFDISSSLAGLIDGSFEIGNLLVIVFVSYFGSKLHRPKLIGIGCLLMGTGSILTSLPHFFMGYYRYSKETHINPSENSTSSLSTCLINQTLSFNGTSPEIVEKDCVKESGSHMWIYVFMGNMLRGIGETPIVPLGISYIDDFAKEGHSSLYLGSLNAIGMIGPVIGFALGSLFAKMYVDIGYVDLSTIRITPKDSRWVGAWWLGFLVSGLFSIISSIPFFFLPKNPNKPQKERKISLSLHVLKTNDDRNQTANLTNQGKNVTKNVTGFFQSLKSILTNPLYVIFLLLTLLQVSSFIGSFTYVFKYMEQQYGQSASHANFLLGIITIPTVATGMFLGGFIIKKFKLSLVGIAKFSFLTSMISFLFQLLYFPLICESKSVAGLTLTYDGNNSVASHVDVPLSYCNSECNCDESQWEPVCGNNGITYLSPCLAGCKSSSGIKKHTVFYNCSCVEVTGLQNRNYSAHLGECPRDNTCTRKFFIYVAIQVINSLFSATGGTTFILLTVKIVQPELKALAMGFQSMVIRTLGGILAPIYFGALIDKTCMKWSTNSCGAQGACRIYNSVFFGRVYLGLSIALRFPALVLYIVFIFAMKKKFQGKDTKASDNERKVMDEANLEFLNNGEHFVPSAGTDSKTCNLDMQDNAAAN

[2] = biological target: T1, FLAG-tagged OATP1B3 (human), Q9NPD5; assay: proximity ligation; Duolink PLA on fixed, transiently co-transfected HEK293 cells; rabbit anti-His and mouse anti-FLAG antibodies; conditions: remark: other sources report otherwise
[3] = biological target: T2, HA-tagged OATP1B3 (human), Q9NPD5; assay: co-IP; membrane fractions of co-transfected HEK293 cells, treated with or without 2 mM DTSSP, solubilised in 0.1% NP-40 in PBS; anti-His, anti-HA or anti-FLAG antibody on magnetic beads, 4°C, 2 days; Western blot after beta-mercaptoethanol; conditions: remark: other sources report otherwise
T2 chain: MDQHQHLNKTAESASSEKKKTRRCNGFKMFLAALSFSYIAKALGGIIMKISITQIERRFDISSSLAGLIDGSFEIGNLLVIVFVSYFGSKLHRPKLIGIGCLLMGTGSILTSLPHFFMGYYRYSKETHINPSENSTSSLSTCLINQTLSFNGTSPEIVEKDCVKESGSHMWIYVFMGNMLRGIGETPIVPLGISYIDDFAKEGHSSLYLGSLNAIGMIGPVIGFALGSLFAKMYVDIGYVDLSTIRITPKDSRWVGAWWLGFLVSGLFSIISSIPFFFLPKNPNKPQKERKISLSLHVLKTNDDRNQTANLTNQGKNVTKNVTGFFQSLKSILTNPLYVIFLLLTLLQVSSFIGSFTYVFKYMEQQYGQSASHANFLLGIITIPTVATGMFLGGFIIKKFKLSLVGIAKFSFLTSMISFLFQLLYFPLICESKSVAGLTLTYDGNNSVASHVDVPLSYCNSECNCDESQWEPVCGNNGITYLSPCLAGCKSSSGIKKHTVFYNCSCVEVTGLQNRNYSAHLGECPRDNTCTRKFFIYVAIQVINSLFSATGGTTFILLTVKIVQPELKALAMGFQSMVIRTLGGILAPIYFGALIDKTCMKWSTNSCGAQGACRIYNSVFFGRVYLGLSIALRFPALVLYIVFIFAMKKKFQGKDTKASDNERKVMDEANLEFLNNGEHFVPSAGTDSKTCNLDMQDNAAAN

[4] = biological target: T3, OATP1B3-K41C-His (non-transporting mutant of OATP1B3) (human) (UniProt Q9NPD5); assay: as above
T3 sequence: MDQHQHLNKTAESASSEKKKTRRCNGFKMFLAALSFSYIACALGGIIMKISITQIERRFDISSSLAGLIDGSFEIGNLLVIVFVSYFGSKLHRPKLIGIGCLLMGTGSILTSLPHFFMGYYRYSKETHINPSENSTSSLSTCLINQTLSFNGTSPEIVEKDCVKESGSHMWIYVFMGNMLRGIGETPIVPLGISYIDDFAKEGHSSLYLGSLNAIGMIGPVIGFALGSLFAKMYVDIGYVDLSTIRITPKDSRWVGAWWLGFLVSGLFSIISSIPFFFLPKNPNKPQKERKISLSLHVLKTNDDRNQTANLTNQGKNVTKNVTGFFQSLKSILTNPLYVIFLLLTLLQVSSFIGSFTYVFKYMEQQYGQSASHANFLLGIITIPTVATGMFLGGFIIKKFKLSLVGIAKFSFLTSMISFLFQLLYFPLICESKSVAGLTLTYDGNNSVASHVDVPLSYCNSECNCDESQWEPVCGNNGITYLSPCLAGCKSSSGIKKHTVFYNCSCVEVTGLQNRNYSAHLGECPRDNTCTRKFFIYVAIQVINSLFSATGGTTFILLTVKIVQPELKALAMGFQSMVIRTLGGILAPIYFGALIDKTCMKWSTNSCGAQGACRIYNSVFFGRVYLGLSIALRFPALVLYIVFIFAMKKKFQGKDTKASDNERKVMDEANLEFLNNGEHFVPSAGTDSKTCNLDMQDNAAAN

B1: His-tagged OATP1B3 (organic anion transporting polypeptide 1B3), Q9NPD5 1-702 (protein)
chain: MDQHQHLNKTAESASSEKKKTRRCNGFKMFLAALSFSYIAKALGGIIMKISITQIERRFDISSSLAGLIDGSFEIGNLLVIVFVSYFGSKLHRPKLIGIGCLLMGTGSILTSLPHFFMGYYRYSKETHINPSENSTSSLSTCLINQTLSFNGTSPEIVEKDCVKESGSHMWIYVFMGNMLRGIGETPIVPLGISYIDDFAKEGHSSLYLGSLNAIGMIGPVIGFALGSLFAKMYVDIGYVDLSTIRITPKDSRWVGAWWLGFLVSGLFSIISSIPFFFLPKNPNKPQKERKISLSLHVLKTNDDRNQTANLTNQGKNVTKNVTGFFQSLKSILTNPLYVIFLLLTLLQVSSFIGSFTYVFKYMEQQYGQSASHANFLLGIITIPTVATGMFLGGFIIKKFKLSLVGIAKFSFLTSMISFLFQLLYFPLICESKSVAGLTLTYDGNNSVASHVDVPLSYCNSECNCDESQWEPVCGNNGITYLSPCLAGCKSSSGIKKHTVFYNCSCVEVTGLQNRNYSAHLGECPRDNTCTRKFFIYVAIQVINSLFSATGGTTFILLTVKIVQPELKALAMGFQSMVIRTLGGILAPIYFGALIDKTCMKWSTNSCGAQGACRIYNSVFFGRVYLGLSIALRFPALVLYIVFIFAMKKKFQGKDTKASDNERKVMDEANLEFLNNGEHFVPSAGTDSKTCNLDMQDNAAAN
[1]
  binding: binds
[2]
  binding: binds

B2: FLAG-tagged OATP1B3, Q9NPD5 1-702 (protein)
chain: MDQHQHLNKTAESASSEKKKTRRCNGFKMFLAALSFSYIAKALGGIIMKISITQIERRFDISSSLAGLIDGSFEIGNLLVIVFVSYFGSKLHRPKLIGIGCLLMGTGSILTSLPHFFMGYYRYSKETHINPSENSTSSLSTCLINQTLSFNGTSPEIVEKDCVKESGSHMWIYVFMGNMLRGIGETPIVPLGISYIDDFAKEGHSSLYLGSLNAIGMIGPVIGFALGSLFAKMYVDIGYVDLSTIRITPKDSRWVGAWWLGFLVSGLFSIISSIPFFFLPKNPNKPQKERKISLSLHVLKTNDDRNQTANLTNQGKNVTKNVTGFFQSLKSILTNPLYVIFLLLTLLQVSSFIGSFTYVFKYMEQQYGQSASHANFLLGIITIPTVATGMFLGGFIIKKFKLSLVGIAKFSFLTSMISFLFQLLYFPLICESKSVAGLTLTYDGNNSVASHVDVPLSYCNSECNCDESQWEPVCGNNGITYLSPCLAGCKSSSGIKKHTVFYNCSCVEVTGLQNRNYSAHLGECPRDNTCTRKFFIYVAIQVINSLFSATGGTTFILLTVKIVQPELKALAMGFQSMVIRTLGGILAPIYFGALIDKTCMKWSTNSCGAQGACRIYNSVFFGRVYLGLSIALRFPALVLYIVFIFAMKKKFQGKDTKASDNERKVMDEANLEFLNNGEHFVPSAGTDSKTCNLDMQDNAAAN
[3]
  binding: binds

B3: FLAG-tagged OATP1B3 (protein, UniProt Q9NPD5 1-702)
chain: MDQHQHLNKTAESASSEKKKTRRCNGFKMFLAALSFSYIAKALGGIIMKISITQIERRFDISSSLAGLIDGSFEIGNLLVIVFVSYFGSKLHRPKLIGIGCLLMGTGSILTSLPHFFMGYYRYSKETHINPSENSTSSLSTCLINQTLSFNGTSPEIVEKDCVKESGSHMWIYVFMGNMLRGIGETPIVPLGISYIDDFAKEGHSSLYLGSLNAIGMIGPVIGFALGSLFAKMYVDIGYVDLSTIRITPKDSRWVGAWWLGFLVSGLFSIISSIPFFFLPKNPNKPQKERKISLSLHVLKTNDDRNQTANLTNQGKNVTKNVTGFFQSLKSILTNPLYVIFLLLTLLQVSSFIGSFTYVFKYMEQQYGQSASHANFLLGIITIPTVATGMFLGGFIIKKFKLSLVGIAKFSFLTSMISFLFQLLYFPLICESKSVAGLTLTYDGNNSVASHVDVPLSYCNSECNCDESQWEPVCGNNGITYLSPCLAGCKSSSGIKKHTVFYNCSCVEVTGLQNRNYSAHLGECPRDNTCTRKFFIYVAIQVINSLFSATGGTTFILLTVKIVQPELKALAMGFQSMVIRTLGGILAPIYFGALIDKTCMKWSTNSCGAQGACRIYNSVFFGRVYLGLSIALRFPALVLYIVFIFAMKKKFQGKDTKASDNERKVMDEANLEFLNNGEHFVPSAGTDSKTCNLDMQDNAAAN
[4]
  binding: binds
